PubChem BioAssay AID504832 (National Center for Advancing Translational Sciences (NCATS), 2011)
Hit rate of the full screen: of about 310,000 compounds, about 18,000 (5.8%) were called active. The inconclusive results got no clear call from the source; some entries with a clear call stand among them for comparison. The call rests on the fitted dose curve; in most records, active means well fitted inhibition curve with a large enough effect; inconclusive means small, poorly fitted or top-dose-only effect, or another doubt; inactive means no such curve, though single readings can be large or run the other way. Potencies of inconclusive entries are left out as doubtful fits.

assay: Primary qHTS for delayed death inhibitors of the malarial parasite plastid, 48 hour incubation; conditions: P. falciparum luciferase growth in erythrocytes; series mostly up to 28.7 µM; activity change, negative = inhibition: at the top concentration
Procedure, shortened: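 Erythrocytes infected with P. falciparum carrying an integrated firefly luciferase reporter (2% hematocrit, 0.1% parasitemia final) were exposed to compounds in RPMI 1640 with 0.5% Albumax at 37 C, 5% CO2. Growth inhibition was scored as reduced luminescence.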
On the % scale 0 is the no-effect control and ±100 the full control effect; potency means the concentration at half of the fitted maximal effect; tags describe the fitted curve by direction and shape.

| SMILES | activity change, negative = inhibition | Potency |
| --- | --- | --- |
| Cc1cc2ccccc2n1CCNC(=O)C1CCCCC1 | inactive: 4.45% | – |
| C[n+]1ccc(CC2C(=[N+]([O-])[O-])C=Nc3ncnn32)cc1 (stereo unspecified) | inactive: 13.1% | – |
| COc1ccc(Cc2nnc(NC(=O)c3c(-c4ccccc4)noc3C)s2)cc1OC | – | inconclusive [inhibitor, partial curve, poor fit] |
| CN(C)CCC(=O)N1c2ccccc2Sc2ccc(Cl)cc21 | – | inconclusive [inhibitor, single point] |
| N#C/C(=C\Nc1ccccc1O)c1nc2ccccc2o1 | – | active: 1.65 µM |
| CCCCn1c(N)c(N(CCC(C)C)C(=O)Cc2ccc(S(=O)(=O)N3CCOCC3)s2)c(=O)[nH]c1=O | – | inconclusive [inhibitor, partial curve] |
| CCCC(CCC)C(=O)Oc1cc(C)[nH]c(=O)c1[N+](=O)[O-] | – | inconclusive [inhibitor, full curve, poor fit] |
| COc1ccc(-c2ccc(-c3nc4c(c(=O)[nH]c(=O)n4Cc4ccccc4)n3C)o2)c([N+](=O)[O-])c1 | – | inconclusive [inhibitor, partial curve, poor fit] |
| Cc1cc(C)n2nc(SC(C)C(=O)N3CCC4(CC3)OCCO4)nc2n1 (stereo unspecified) | – | active: 2.62 µM |
| Cn1c(=O)c2c(nc(N3CCc4ccccc4C3)n2Cc2ccccc2F)n(C)c1=O | – | active: 13.1 µM |
| Cc1ccc2cc(CN(CC3CCCO3)S(=O)(=O)c3cccc4nsnc34)c(=O)[nH]c2c1 (stereo unspecified) | – | active: 9.28 µM |
| COc1ccccc1CNC(=O)CSc1nc(N)c(C#N)c(-c2cccs2)c1C#N | – | inconclusive [inhibitor, single point] |
| CC1=CC(C)(C)N(C(=O)c2ccccc2)c2ccc(C)cc21 | – | inconclusive [inhibitor, partial curve, poor fit] |
| CCCC1(CCC)NC(=O)N(CC(=O)c2cc(C)n(-c3ccc4c(c3)OCO4)c2C)C1=O | – | inconclusive [inhibitor, single point] |
| O=C(Nc1cccc(C(F)(F)F)c1)c1ccc2nc(-c3ccco3)c(-c3ccco3)nc2c1 | – | inconclusive [inhibitor, single point] |
| CCN(CC)c1ccc(/C=N/N2CCN(Cc3cccc4ccccc34)CC2)c(O)c1 | – | inconclusive [inhibitor, partial curve, poor fit] |
| CC(C)c1ccc(NC(=O)CSc2nnc(-c3ccccn3)n2C)cc1 | inactive: 7.29% | – |
| Cc1ccc(C)c(N2CCN(C3CCCC(C)C3)CC2)c1 (stereo unspecified) | – | inconclusive [inhibitor, single point] |
| CC1CN(C(=O)COC(=O)/C=C/c2ccc(C(F)(F)F)cc2)CC(C)O1 (stereo unspecified) | – | inconclusive [inhibitor, single point] |
| O=C(COc1cccc2cccnc12)NNC(=S)Nc1ccccc1 | inactive: -22.2% | – |
| CCn1nc(C(=O)Nc2ccc(S(=O)(=O)Nc3nccs3)cc2)c2ccccc2c1=O | – | inconclusive [inhibitor, partial curve] |
| O=C1CN(C(=O)/C=C/c2ccccc2)CCN1 | inactive: 10.3% | – |

| SMILES | activity change, negative = inhibition | Potency |
| --- | --- | --- |
| COc1ccc(C(=O)N2CC3(C)CC2CC(C)(C)C3)cc1 (stereo unspecified) | – | inconclusive [inhibitor, partial curve, poor fit] |
| Cc1c(NC(=O)c2cccs2)cccc1[N+](=O)[O-] | inactive: 20.3% | – |
| Cc1cc(-n2c(C)cc(C(=O)CN3C(=O)NC4(CCCCC4C)C3=O)c2C)no1 (stereo unspecified) | – | active: 2.33 µM |
| COc1cc(Cl)ccc1NC(=O)COc1ccccc1C(=O)NN | – | inconclusive [inhibitor, single point] |
| COC(=O)c1ccc(NC(=O)CN(c2ccc(OC)cc2)S(C)(=O)=O)cc1 | inactive: 47.7% | – |
| O=C(c1ccc2c(c1)OCO2)n1nnc2ccccc21 | inactive: 68.4% | – |
| Cc1nc2cc(C(F)(F)F)ccc2n1C1CCN(Cc2nnnn2CCc2ccccc2)CC1 | – | active: 13.1 µM |
| Cc1cccc(N2CCN(S(=O)(=O)c3ccc4c(c3)C(C)(C)C(=O)N4C)CC2C)c1 (stereo unspecified) | – | inconclusive [inhibitor, partial curve] |
| Cc1coc2cc3oc(=O)c(CCC(=O)N4CCC(C(=O)O)(c5ccccc5)CC4)c(C)c3cc12 | – | inconclusive [inhibitor, full curve, poor fit] |
| O=C(CCCN1C(=O)/C(=C\c2ccco2)SC1=S)Nc1ccc2ccccc2c1 | – | inconclusive [inhibitor, partial curve, poor fit] |
| COc1ccc(-n2nnnc2SCC(=O)c2ccc(OC)c(OC)c2)cc1 | – | inconclusive [inhibitor, single point] |
| CCc1nnc(NS(=O)(=O)c2ccc(N=CC3=C(O)CC(C)(C)CC3=O)cc2)s1 | inactive: 6.86% | – |
| Cc1ccc(CC(=O)OC(C)C(=O)NC2CCCCC2C)cc1C (stereo unspecified) | – | inconclusive [inhibitor, single point] |
| CCCn1cnc2c1c(=O)n(CCCCC(C)=O)c(=O)n2C | – | active: 12 µM |
| CCCc1nc2sc3ccccc3c(=O)c2c(=O)n1Cc1ccc(OC)cc1 | – | inconclusive [inhibitor, single point] |
| Cc1nnc(N2CCCC(C(=O)Nc3cc(F)ccc3F)C2)c2nn(-c3ccccc3)c(C)c12 (stereo unspecified) | – | inconclusive [inhibitor, single point] |
| O=C(CN1CCN(S(=O)(=O)c2ccccc2F)CC1)Nc1ccccc1C(=O)c1ccccc1 | – | inconclusive [inhibitor, full curve] |
| O=C(NCc1ccccc1)C1=C[C@@H](c2ccc(C(F)(F)F)cc2)C[C@@H](OCc2ccc(CO)cc2)O1 | – | inconclusive [inhibitor, full curve, poor fit] |
| CCC(NC(=O)CCCc1ccccc1)c1ccccc1 (stereo unspecified) | inactive: -7.38% | – |
| Cc1ccc(CNC(=O)C2CCCN(c3nn4c(=O)cc(C)nc4s3)C2)cc1 (stereo unspecified) | – | inconclusive [inhibitor, partial curve, poor fit] |
| O=C(c1ccc(Cl)c(NC2=NC3CS(=O)(=O)CC3S2)c1)N1CCN(c2ccc(F)cc2)CC1 (stereo unspecified) | inactive: -4.34% | – |
| CN1CCC(NC(=O)c2cc(-c3cccc(Br)c3)nc3ccccc23)CC1 | – | active: 13.1 µM |

| SMILES | activity change, negative = inhibition | Potency |
| --- | --- | --- |
| COc1cc(/C=C/CO)cc(OC)c1OC/C=C(\C)CCC=C(C)C | – | inconclusive [inhibitor, single point] |
| O=C1COc2ccc(C(=O)COC(=O)c3c(F)cccc3Cl)cc2N1 | – | inconclusive [inhibitor, single point] |
| CCCCCCCNC(=O)C1(CC2CC(c3cccc(Br)c3)=NO2)CCN(C(=O)C2CCCC2)CC1 (stereo unspecified) | – | active: 5.22 µM |
| O=C(Nc1ccc(N2CCN(C(=O)c3ccc(Cl)cc3)CC2)cc1)c1ccc([N+](=O)[O-])o1 | – | active: 3.29 µM |
| Cc1noc(C)c1C(=O)Nc1cccc(S(=O)(=O)N2CCOCC2)c1 | inactive: 14% | – |
| CN(C)C(CNC(=O)c1ccc(NS(=O)(=O)c2ccc(F)cc2)cc1)c1ccco1 (stereo unspecified) | – | inconclusive [inhibitor, single point] |
| COc1ccc(OC)c(N=c2oc3c(OC)cccc3cc2C(=O)NCc2ccco2)c1 | inactive: 8.48% | – |
| CNC(=S)N1N=C(c2ccccc2)CC1c1ccc(Br)cc1 (stereo unspecified) | – | inconclusive [inhibitor, partial curve, poor fit] |
| COc1cc2ccccc2cc1C(=O)Nc1ccc(N2CCN(C)CC2)cc1 | – | inconclusive [inhibitor, single point] |
| Cc1ccc(NP(=O)(c2ccc(N(C)C)cc2NC(=O)c2cccs2)N2CCOCC2)cc1 (stereo unspecified) | – | inconclusive [inhibitor, single point] |
| CCC(=O)Nc1ccc(NC(=O)CSc2nnc(C(C)C)n2C)cc1 | – | inconclusive [inhibitor, single point] |
| CCCCN(C(=O)CCC(=O)Nc1cc(C)on1)C(C(=O)NC1CCCC1)c1ccccc1C (stereo unspecified) | – | inconclusive [inhibitor, partial curve, poor fit] |
| CCOC(=O)CSc1nnc(CNC(=O)c2ccccc2OC)n1-c1ccc(OC)cc1 | – | inconclusive [inhibitor, full curve, poor fit] |
| CCCC(NC(=O)c1ccccc1)c1nc2ccccc2n1Cc1ccc(C(=O)OC)o1 (stereo unspecified) | – | active: 13.1 µM |
| COc1ccc(CCNC(=O)C2CCN(S(=O)(=O)N3CCC4(CC3)OCCO4)CC2)cc1OC | – | inconclusive [inhibitor, single point] |
| COc1ccc(S(=O)(=O)N2CCCCCC2)cc1C(=O)N(C)CCOc1ccc(Cl)cc1 | – | active: 13.1 µM |
| O=C(NCC(c1ccco1)N1CCCCC1)c1ccc(S(=O)(=O)Nc2ccccc2)cc1 (stereo unspecified) | inactive: -20.3% | – |
| CC[C@H](C)[C@@H](C(=O)NCCCCCCCCCCC(=O)N1CCN(C(=O)OC(C)(C)C)CC1)n1cc(CCCCCNC(=O)OC(C)(C)C)nn1 | – | active: 1.47 µM |
| CCOC(=O)c1nc(C)n(-c2cc(Cl)ccc2Cl)n1 | inactive: 19.2% | – |
| COc1ccc(C23NCCN2C(=O)c2ccccc23)cc1 (stereo unspecified) | – | inconclusive [inhibitor, single point] |
| CCCCCCCN1C/C=C\C(c2ccc(OC)cc2)N(Cc2ccc(F)cc2)C(=O)[C@H]1Cc1ccccc1 (stereo partly specified) | – | inconclusive [inhibitor, single point] |
| CCOC(=O)C(C(=O)OCC)C(C)(C)/C(C)=N\Nc1ccc([N+](=O)[O-])cc1[N+](=O)[O-] | – | inconclusive [inhibitor, single point] |
